Test results as given in PubChem BioAssay AID2060326 (Molecular Pharmacology Branch, DTP, NCI, 2025).
For part of its entries the source gives two or more results. The list is limited to them. The source may hold further records. Values given together are repeats in other runs, samples, wells, individuals or studies. Counts like (3×) count equal records among those shown.

Tested on: MDA-MB-468 multi-cell spheroids, viability
Test: Anticancer human tumor MDA-MB-468 cell line growth inhibition [IpAb];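 note: spheroids exposed to agents for seven days; 100% = DMSO vehicle control viability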
Conditions: stronger effect = lower value
Excerpt: Combinatorial screen of targeted agents with ipatasertib and abemaciclib in multi-cell type tumor spheroids
A high-throughput screen of multi-cell type tumor spheroids was designed to identify active combinations of targeted small molecules and ipatasertib or abemaciclib. Complex spheroids include a stromal component modeled by human endothelial cells (HUVEC) and fibroblasts modeled by human mesenchymal stem cells (MSCs). The concentration ranges selected for each drug and investigational agent were based upon clinically achievable concentrations if the clinical Cmax of the agent was known.
Compounds. The drugs and investigational agents: ipatasertib (NSC767898), abemaciclib(NSC768073), selumetinib (NSC741078), trametinib (758246), adavosertib (NSC754352), everolimus (NSC733504), sapanisertib (NSC764658), vemurafenib (NSC761431), venetoclax (NSC766270), copanlisib (NSC809693), apelisib (NSC765974), palbociblib (NSC758247), vemurafenib (NSC761431), dabrafenib (NSC764134), ravoxertinib (NSC781343), BMS-387032 (NSC767048), sotorasib (NSC818433), talazoparib (NSC767125) and afursertib (NSC778305), were obtained from the National Cancer Institute (NCI) Developmental Therapeutics Program Chemical Repository. The FDA-approved anticancer drug set is available from the NCI Developmental Therapeutics Program. […] The stock solutions were prepared in dimethyl sulfoxide (DMSO, Sigma-Aldrich, St. Louis, MO, cat. D2650) at 800-fold the tested concentration and stored at -70 degrees C prior to their use. All drugs and investigational agents were tested over a range starting from a high concentration at or near the clinical Cmax and decreasing in half-log increments. If the clinical Cmax for an agent had not been determined, the highest concentration tested was 10 microM.
NCI60 Cell Culture. NCI60 cell lines were obtained from the NCI Developmental Therapeutics Program Tumor Repository. For each lot of cells, the Repository performed Applied Biosystems AmpFLSTR Identifiler testing with PCR amplification to confirm consistency with the published Identifier STR profile for each cell line. Cells were kept in continuous culture for no more than 20 passages. The optimal seeding densities for each of the cell lines at each time point assessed were determined prior to performing the concentration response studies. Briefly, the NCI60 human tumor lines were grown as monolayers in RPMI 1640 medium supplemented with 10% FBS and 2 mmol/L L-glutamine.
An additional 9 lines were from the NCI60 cell line panel including MDA-MB-231 breast carcinoma, MDA-MB-468 breast carcinoma, MCF7 breast carcinoma, Hs578T breast carcinoma, MALME-3M melanoma, SK-MEL-2 melanoma, SK-OV-3 ovarian carcinoma, DU-145 prostate carcinoma, PC-3 prostate carcinoma, all cell lines along with major genetic alterations are listed on Table 2. Pooled donor human umbilical vein endothelial cells (HUVEC, Lonza, cat. CC-2519) and human mesenchymal stem cells (hMSC, Lonza, cat. PT-2501) were purchased from Lonza (Walkersville, MD).
PDMR cell lines were grown in complete medium (DC medium): Dulbecco's modified Eagle's medium (DMEM)/F12 supplemented with 5% fetal bovine serum (FBS), 2 mM L-glutamine, 100 U/mL penicillin and 100 µg/ml streptomycin, 0.4 µg/ml hydrocortisone, 10 ng/ml epidermal growth factor (EGF) recombinant human protein, 24 µg/mL adenine, and 0.1 mg/mL primocin. During culture from frozen stock vials, PDMR cells were cultured in the same medium containing 10 µM Y-27632 (see Table 3). […]

Structure (SMILES)	viability, T/C (compound alone 0.316 µM)	viability, T/C (compound alone 0.01 µM)	viability, T/C (compound alone 0.0316 µM)	viability, T/C (compound alone 1 µM)
CC(C)NCC(C(=O)N1CCN(c2ncnc3c2C(C)CC3O)CC1)c1ccc(Cl)cc1 (stereo not given)	62.4, 83.1, 66.7, 66.3, 56.1, 63.8 (2×), 74, 70.3, 64.9, 56.4, 58, 66.6%			
CCN1CCN(Cc2ccc(Nc3ncc(F)c(-c4cc(F)c5nc(C)n(C(C)C)c5c4)n3)nc2)CC1	100, 109, 102, 106, 97.8, 84, 104, 105, 112, 99.1, 91.5, 85.2, 103%	102 (2×), 115, 95.6, 96.2, 95.8, 90.1, 103, 82.4, 94, 97.1, 111, 106%	92.6, 103, 110, 96.6, 89.7, 95, 87, 112, 105, 92.1, 84.1, 93.5% (2×)	68.7, 88.4, 76.9, 79.1, 78, 60.6, 81.4, 73.6, 71.9, 90.2, 86.6, 73.5, 82.8%
